Experimental data reported in PubChem BioAssay AID1468 (National Center for Advancing Translational Sciences (NCATS), 2008).
Hit rate of the full screen: of about 280,000 compounds, about 1,100 (0.39%) were called active. Inconclusive means that the source gave no clear call. Such entries were picked first, then a sample of the others. Calls follow the shape of the dose curve; as a rule, active = well fitted inhibition curve with a large enough effect; inconclusive = small, poorly fitted or top-dose-only effect, or effect the other way; inactive = flat fitted curve, though single readings scatter. Potencies of inconclusive entries are left out as doubtful fits.

What follows are compounds tested against Microtubule-associated protein tau (Homo sapiens) (UniProt P10636) (assay: qHTS for Inhibitors of Tau Fibril Formation, Fluorescence Polarization). Conditions: K18 P301L tau heparin fibrillization, Alexa594 FP, 6 h; series mostly up to 57.7 µM.
Method in brief: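 Human tau K18 […] P301L fragment, 15 uM unlabeled plus 0.24 uM Alexa 594-labeled tau (final), with compound and 20 uM heparin in 100 mM sodium acetate pH 7; 6 hr at 37 C, then Alexa 594 FP read.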
% is scaled to controls: 0 for no effect and ±100 for the full control effect; potency is read from the fitted curve at half-maximal effect; tags tell the direction and shape of the fitted curve.
Also: nearly all actives have a fitted effect of over 55% in size.

UniProt P10636, sequence (P10636 whole entry, looked up, the tested form may be a part): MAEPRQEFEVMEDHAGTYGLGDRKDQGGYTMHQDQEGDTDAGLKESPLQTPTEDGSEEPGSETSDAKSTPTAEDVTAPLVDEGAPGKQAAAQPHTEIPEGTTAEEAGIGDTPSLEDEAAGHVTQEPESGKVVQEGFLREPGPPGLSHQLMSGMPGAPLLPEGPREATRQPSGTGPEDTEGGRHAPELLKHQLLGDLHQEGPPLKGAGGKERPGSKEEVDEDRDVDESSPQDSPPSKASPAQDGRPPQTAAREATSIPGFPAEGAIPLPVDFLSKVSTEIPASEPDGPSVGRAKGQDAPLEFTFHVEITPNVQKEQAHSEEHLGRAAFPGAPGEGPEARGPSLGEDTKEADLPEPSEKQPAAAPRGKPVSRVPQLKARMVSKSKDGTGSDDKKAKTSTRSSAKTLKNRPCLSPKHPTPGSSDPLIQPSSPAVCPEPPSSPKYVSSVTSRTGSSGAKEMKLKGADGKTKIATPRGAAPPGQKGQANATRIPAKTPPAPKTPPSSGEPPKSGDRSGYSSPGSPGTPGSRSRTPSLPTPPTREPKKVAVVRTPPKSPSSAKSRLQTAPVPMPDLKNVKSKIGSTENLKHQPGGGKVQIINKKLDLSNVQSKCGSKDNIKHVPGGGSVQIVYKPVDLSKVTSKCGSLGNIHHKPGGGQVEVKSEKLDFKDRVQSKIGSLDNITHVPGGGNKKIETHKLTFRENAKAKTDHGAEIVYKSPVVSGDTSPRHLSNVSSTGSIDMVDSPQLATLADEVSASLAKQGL

| Structure (SMILES) | Potency | activity, negative = inhibition |
| --- | --- | --- |
| CCn1c(SCC(=O)NCC(=O)Nc2ccc(F)cc2)nnc1-c1cccs1 | inactive |  |
| COc1ccc(C(C)=O)c2c(O)cccc12 | inactive |  |
| COc1ccc(/C=C2\SC(=NCc3ccccc3)N(Cc3ccccc3)C2=O)cc1OC | inconclusive [inhibitor, partial curve, poor fit] |  |
| CC1CC(C)(C)NC(=S)N1CCCC(=O)Nc1ccc(Cl)cc1 (stereo not drawn) | inactive |  |
| CC1CCCC(n2c(=S)[nH]c3ccccc3c2=O)C1C (stereo not drawn) | inconclusive [inhibitor, partial curve] |  |
| O=C(CSc1nc(O)cc(=O)[nH]1)N1c2ccccc2Sc2ccccc21 | inactive |  |
| COc1ccc(C(C)=O)cc1CSCCC(=O)O | inactive |  |
| O=c1c(O)c(-c2ccc(O)c(O)c2)oc2c(OC3OC(CO)C(O)C(O)C3O)c(O)cc(O)c12 (stereo not drawn) | inconclusive [inhibitor, single point] |  |
| CCOc1ccc(/C=C(\C#N)c2nc(-c3cc4ccccc4oc3=O)cs2)c(OCC)c1 | inactive |  |
| COc1cccc(/C=C/C(=O)Nc2cccc(C(C)=O)c2)c1OC | inconclusive [inhibitor, partial curve] |  |
| O=C(CCc1ccccc1)NC(NC(=S)Nc1ccc(Cl)cc1)C(Cl)(Cl)Cl (stereo not drawn) | inconclusive [inhibitor, partial curve] |  |
| COc1ccc2c(c1)-c1nc(NC(=O)c3ccco3)sc1CC2 | inactive |  |
| COc1cc(NC(=O)c2ccc(Cl)cc2)c(OC)cc1NC(=O)CN1CCOCC1 | inactive |  |
| COC(=O)c1ccc(C(NC(=O)OCc2ccccc2)/C(F)=C/[C@@H](C)C(=O)NCCc2c[nH]c3ccc(OC)cc23)cc1 (stereo partly drawn) | inconclusive [activator, partial curve] |  |
| O=C(Nc1ccc(F)cc1)N(Cc1cccs1)Cc1cc2cc3c(cc2[nH]c1=O)OCO3 | inconclusive [inhibitor, single point] |  |
| O=C(Cc1ccc(-c2ccccc2)cc1)N1CCOCC1 | inconclusive [inhibitor, single point] |  |
| Cc1cc(Cl)ccc1NC(=S)NCc1ccc(Cl)cc1 | inconclusive [inhibitor, partial curve] |  |
| CCOC(=O)c1noc2ncnc(Nc3ccc(C)c(F)c3)c12 | inactive |  |
| CC(Cc1cccs1)NC(=O)Nc1ccc(Cl)c(Cl)c1 (stereo not drawn) | active: 25.1 µM |  |
| COc1ccc(NC(=O)c2cnn(-c3ccc(C)cc3)c2-n2cccc2)cc1Cl | inactive |  |
| CCc1cccc2c(-c3ccccc3)nc(SCC(=O)Nc3ccccc3)nc12 | inactive |  |
| CCCCn1c(/C=N/Nc2nc3ccccc3[nH]2)nc2ccccc21 | inactive |  |
| CC(=O)C1=C(C)OC(N)=C(C#N)C1c1ccco1 (stereo not drawn) | inconclusive [inhibitor, single point] |  |

| Structure (SMILES) | Potency | activity, negative = inhibition |
| --- | --- | --- |
| CCn1c(=O)c(C(=O)CN2CCc3ccccc32)c(N)n(Cc2ccccc2)c1=O | inconclusive [inhibitor, single point] |  |
| COCCCNC(=O)c1ccc(N(C)S(=O)(=O)c2ccc(OC)cc2)cc1 | inactive |  |
| CCOCCOC(=O)c1ccc(NC(=O)/C=C/c2ccc(OC)c(OC)c2)cc1 | inconclusive [inhibitor, partial curve] |  |
| COc1ccc(OCCNC(=S)Nc2cccc3ccccc23)cc1 | inactive |  |
| COC(=O)C1=C(C(=O)OC)[C@@H]2N(C)c3ccc(OC)cc3[C@@]23C[C@@H](C(=O)OC)N(S(=O)(=O)c2cccs2)C3=N1 |  | inactive: 1.62% [at 11.6 µM] |
| Cc1cc(C)cc(NC(=O)c2nnn(Cc3cc(C)ccc3C)c2N)c1 | inconclusive [inhibitor, full curve] |  |
| CC(/C=N/N1CCN(c2ccc(C)cc2)CC1)=C\c1ccccc1 | inconclusive [activator, full curve, poor fit] |  |
| CC(=O)Nc1cccc(NC(=O)c2cc(-c3cccnc3)nc3ccc(Br)cc23)c1 | inconclusive [inhibitor, partial curve, poor fit] |  |
| Cc1ccc(-c2c(C)sc(=NC(=O)c3ccco3)n2C)cc1 | inconclusive [inhibitor, single point] |  |
| Cc1ccc(-c2noc(CNC(=O)c3ccc(C(C)(C)C)cc3)n2)cc1 | inconclusive [inhibitor, partial curve, poor fit] |  |
| Cc1cccc(C(=O)N2CCc3cc(CNC(=O)CCc4ccccc4)ccc32)c1 | inactive |  |
| COc1ccccc1-c1noc(-c2ccc(N3CCN(c4ccccc4)CC3)c([N+](=O)[O-])c2)n1 | inactive |  |
| Cc1nn2c(NCCCN(C)C)c3c(nc2c1-c1ccccc1)CCCC3 | inconclusive [activator, partial curve] |  |
| [2H]c1c([2H])c([2H])c(C(=O)c2sc(N3CCCCCC3)nc2-c2ccccc2)c([2H])c1[2H] | inactive |  |
| N#Cc1cn(CCOc2ccccc2F)c2ccccc12 | inconclusive [inhibitor, single point] |  |
| Nc1ccc(S(=O)(=O)Nc2nc(-c3ccccc3)cc(-c3ccccc3)n2)cc1 | inconclusive [inhibitor, single point] |  |
| C/C(=N\Nc1nc(N2CCCCC2)nc(N2CCOCC2)n1)c1ccccc1O | inconclusive [inhibitor, partial curve] |  |
| NS(=O)(=O)c1ccc(NC(=O)Nc2ccc(C(F)(F)F)cc2)cc1 | inconclusive [inhibitor, single point] |  |
| COc1cccc(NC(=O)Nc2cc(-c3cn4cccnc4n3)ccc2C)c1 | inconclusive [inhibitor, single point] |  |
| CCC(Sc1nnc(C)n2c1cc1occc12)C(=O)Nc1ccccc1F (stereo not drawn) | inactive |  |
| O=C(Nc1cccc(Cl)c1)c1c(NC(=O)C(F)(F)F)sc2c1CCCC2 | inconclusive [inhibitor, single point] |  |
| Cc1cccc(-n2c(C)nc3cc(C(=O)NCc4ccc5c(c4)OCO5)ccc32)c1 | inactive |  |
| COc1cc(OC)c(NC(=O)COCc2cc(-c3cccs3)on2)cc1Cl | inconclusive [inhibitor, full curve, poor fit] |  |

| Structure (SMILES) | Potency | activity, negative = inhibition |
| --- | --- | --- |
| COc1ccc(-c2cc(-c3ccccc3)nc(SCC(=O)Nc3ncc(C)s3)c2C#N)cc1 | inconclusive [inhibitor, single point] |  |
| O=C(CSC1=Nc2ccccc2C2=NC(CC(=O)NCc3ccco3)C(=O)N12)NCc1ccco1 (stereo not drawn) | inconclusive [inhibitor, single point] |  |
| Cc1[nH]c2ccc(-c3n[nH]c(=S)n3C)cc2c1C | inconclusive [activator, single point] |  |
| Cc1ccc(OC(=O)c2ccc(S(=O)(=O)N(C)C)cc2)c(-n2nc3ccccc3n2)c1 | inconclusive [inhibitor, partial curve] |  |
| COC(=O)/C=C1\OC(c2ccccc2)=CC1=O | inactive |  |
| CN(c1ccccc1)S(=O)(=O)c1ccc(NC(=S)NC(=O)c2ccccc2)cc1 | inconclusive [inhibitor, partial curve, poor fit] |  |
| CCc1ccc(C2C(C(=O)Nc3ccccc3)=C(C)Nc3c(C(=O)Nc4ccc(C)cc4)cnn32)cc1 (stereo not drawn) | inconclusive [inhibitor, single point] |  |
| CC1=C(C#N)C(=O)N(C2CCS(=O)(=O)C2)C(=O)/C1=C\c1ccc(C)o1 (stereo not drawn) | inconclusive [inhibitor, partial curve, poor fit] |  |
| C/C(CCc1ccc2c(c1)OCO2)=N\N=C(/N)SC1CC(=O)N(c2ccc(Cl)cc2)C1=O (stereo not drawn) | inconclusive [inhibitor, partial curve] |  |
| O=C(Nc1ccc(C(F)(F)F)cc1)C1CCC(CNS(=O)(=O)c2cccc3nsnc23)CC1 (stereo not drawn) | inconclusive [inhibitor, single point] |  |
| CCOC(=O)C1CCN(C(c2ccccc2)c2c(O)cc(C)n(Cc3ccco3)c2=O)CC1 (stereo not drawn) | inactive |  |
| O=C(CCCOc1ccc(Cl)cc1Cl)NNC(=O)c1ccc(NC(=O)c2ccccc2)cc1 | inconclusive [inhibitor, single point] |  |
| COc1ccc(-c2cc3ccccc3[nH]2)cc1 | inconclusive [activator, full curve, poor fit] |  |
| CCOC(=O)Cn1c(Br)nc2c1c(=O)[nH]c(=O)n2C | inactive |  |
| Cc1ccc(-c2nc(NC(=O)c3nn(C)cc3[N+](=O)[O-])sc2C)cc1C | inconclusive [inhibitor, full curve, poor fit] |  |
| COc1ccc(OC)c(Nc2nc(-c3ccccc3O)nc3ccccc23)c1 | inactive |  |
| Cc1cccc(C2=NN(c3ccccc3)[C@H](CO)[C@H]2c2ccc(F)cc2)c1 | inconclusive [activator, single point] |  |
| COc1ccc2nc3sc(C(=O)Nc4ccccc4F)cc3cc2c1 | inconclusive [inhibitor, partial curve] |  |
| O=S(=O)(NCCc1ccccc1)c1ccc(N2CCCCS2(=O)=O)cc1 | inconclusive [inhibitor, single point] |  |
| CCOc1ccc(NS(=O)(=O)c2ccc3[nH]cc(C(=O)NCc4ccco4)c(=O)c3c2)cc1 | active: 15.8 µM |  |
| CN(C)c1nc(OCCNC(=O)Nc2ccc(Cl)cc2)nc(N(C)C)n1 | inconclusive [inhibitor, full curve] |  |
| O=C(CN1CCOCC1)Nc1nc2cc([N+](=O)[O-])ccc2s1 | inconclusive [activator, full curve, poor fit] |  |
